The values that follow come from publication PMC9911399, “Two distinct binding modes provide the RNA-binding protein RbFox with extraordinary sequence specificity”.

Numbering of substitutions follows the chain as printed; changes in the protein carry UniProt numbers. The list shows a part of the results.

To fix the notation:
T1: RBFOX1 RRM (Homo sapiens, UniProt Q9NWB1 109-208)
T1 sequence: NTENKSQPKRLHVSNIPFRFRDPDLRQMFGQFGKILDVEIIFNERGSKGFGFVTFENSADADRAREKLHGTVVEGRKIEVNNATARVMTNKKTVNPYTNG

B1: AGGGCCC (DNA:RNA)
RNA: GGGAGACCGGAAUUCAGAUUGUCCAGGGCCCUUAAAUCCCGUCGUAGCCACCA
DNA 1: CAATCTGAATTCCGGTCTCCC
DNA 2: TGGTGGCTACGACGGGATT
B2: UAGUUAA (DNA:RNA)
RNA: B1 RNA with A25U, G26A, G28U, C29U, C30A, C31A
DNA 1: CAATCTGAATTCCGGTCTCCC
DNA 2: TGGTGGCTACGACGGGATT
B3: UUAACGG (DNA:RNA)
RNA: B1 RNA with A25U, G26U, G27A, G28A, C30G, C31G
DNA 1: CAATCTGAATTCCGGTCTCCC
DNA 2: TGGTGGCTACGACGGGATT
B4: CCGAUCU (DNA:RNA)
RNA: B1 RNA with A25C, G26C, G28A, C29U, C31U
DNA 1: CAATCTGAATTCCGGTCTCCC
DNA 2: TGGTGGCTACGACGGGATT
B5: CUCAUCA (DNA:RNA)
RNA: B1 RNA with A25C, G26U, G27C, G28A, C29U, C31A
DNA 1: CAATCTGAATTCCGGTCTCCC
DNA 2: TGGTGGCTACGACGGGATT
B6: CGCGAAA (DNA:RNA)
RNA: B1 RNA with A25C, G27C, C29A, C30A, C31A
DNA 1: CAATCTGAATTCCGGTCTCCC
DNA 2: TGGTGGCTACGACGGGATT
B7: UAAUCCC (DNA:RNA)
RNA: B1 RNA with A25U, G26A, G27A, G28U
DNA 1: CAATCTGAATTCCGGTCTCCC
DNA 2: TGGTGGCTACGACGGGATT
B8: UUGGCGA (DNA:RNA)
RNA: B1 RNA with A25U, G26U, C30G, C31A
DNA 1: CAATCTGAATTCCGGTCTCCC
DNA 2: TGGTGGCTACGACGGGATT
B9: AAACCAU (DNA:RNA)
RNA: B1 RNA with G26A, G27A, G28C, C30A, C31U
DNA 1: CAATCTGAATTCCGGTCTCCC
DNA 2: TGGTGGCTACGACGGGATT
B10: UGAGUAU (DNA:RNA)
RNA: B1 RNA with A25U, G27A, C29U, C30A, C31U
DNA 1: CAATCTGAATTCCGGTCTCCC
DNA 2: TGGTGGCTACGACGGGATT
B11: CGCAAAG (DNA:RNA)
RNA: B1 RNA with A25C, G27C, G28A, C29A, C30A, C31G
DNA 1: CAATCTGAATTCCGGTCTCCC
DNA 2: TGGTGGCTACGACGGGATT
B12: ACGUUGU (DNA:RNA)
RNA: B1 RNA with G26C, G28U, C29U, C30G, C31U
DNA 1: CAATCTGAATTCCGGTCTCCC
DNA 2: TGGTGGCTACGACGGGATT
B13: GAACAUC (DNA:RNA)
RNA: B1 RNA with A25G, G26A, G27A, G28C, C29A, C30U
DNA 1: CAATCTGAATTCCGGTCTCCC
DNA 2: TGGTGGCTACGACGGGATT
B14: CUUGGCG (DNA:RNA)
RNA: B1 RNA with A25C, G26U, G27U, C29G, C31G
DNA 1: CAATCTGAATTCCGGTCTCCC
DNA 2: TGGTGGCTACGACGGGATT
B15: ACCUGGC (DNA:RNA)
RNA: B1 RNA with G26C, G27C, G28U, C29G, C30G
DNA 1: CAATCTGAATTCCGGTCTCCC
DNA 2: TGGTGGCTACGACGGGATT
B16: GUACGAC (DNA:RNA)
RNA: B1 RNA with A25G, G26U, G27A, G28C, C29G, C30A
DNA 1: CAATCTGAATTCCGGTCTCCC
DNA 2: TGGTGGCTACGACGGGATT
B17: GAUGCUU (DNA:RNA)
RNA: B1 RNA with A25G, G26A, G27U, C30U, C31U
DNA 1: CAATCTGAATTCCGGTCTCCC
DNA 2: TGGTGGCTACGACGGGATT
B18: UAAGAAU (DNA:RNA)
RNA: B1 RNA with A25U, G26A, G27A, C29A, C30A, C31U
DNA 1: CAATCTGAATTCCGGTCTCCC
DNA 2: TGGTGGCTACGACGGGATT
B19: UCGUUGG (DNA:RNA)
RNA: B1 RNA with A25U, G26C, G28U, C29U, C30G, C31G
DNA 1: CAATCTGAATTCCGGTCTCCC
DNA 2: TGGTGGCTACGACGGGATT
B20: GGCUAGA (DNA:RNA)
RNA: B1 RNA with A25G, G27C, G28U, C29A, C30G, C31A
DNA 1: CAATCTGAATTCCGGTCTCCC
DNA 2: TGGTGGCTACGACGGGATT
B21: GUCGUUC (DNA:RNA)
RNA: B1 RNA with A25G, G26U, G27C, C29U, C30U
DNA 1: CAATCTGAATTCCGGTCTCCC
DNA 2: TGGTGGCTACGACGGGATT
B22: CAAAGCU (DNA:RNA)
RNA: B1 RNA with A25C, G26A, G27A, G28A, C29G, C31U
DNA 1: CAATCTGAATTCCGGTCTCCC
DNA 2: TGGTGGCTACGACGGGATT
B23: ACCAAGA (DNA:RNA)
RNA: B1 RNA with G26C, G27C, G28A, C29A, C30G, C31A
DNA 1: CAATCTGAATTCCGGTCTCCC
DNA 2: TGGTGGCTACGACGGGATT
B24: CGCACUC (DNA:RNA)
RNA: B1 RNA with A25C, G27C, G28A, C30U
DNA 1: CAATCTGAATTCCGGTCTCCC
DNA 2: TGGTGGCTACGACGGGATT
B25: CCAGGCG (DNA:RNA)
RNA: B1 RNA with A25C, G26C, G27A, C29G, C31G
DNA 1: CAATCTGAATTCCGGTCTCCC
DNA 2: TGGTGGCTACGACGGGATT
B26: GUAGGGA (DNA:RNA)
RNA: B1 RNA with A25G, G26U, G27A, C29G, C30G, C31A
DNA 1: CAATCTGAATTCCGGTCTCCC
DNA 2: TGGTGGCTACGACGGGATT
B27: ACAGUUA (DNA:RNA)
RNA: B1 RNA with G26C, G27A, C29U, C30U, C31A
DNA 1: CAATCTGAATTCCGGTCTCCC
DNA 2: TGGTGGCTACGACGGGATT
B28: AUAAGUG (DNA:RNA)
RNA: B1 RNA with G26U, G27A, G28A, C29G, C30U, C31G
DNA 1: CAATCTGAATTCCGGTCTCCC
DNA 2: TGGTGGCTACGACGGGATT
B29: ACAUAGG (DNA:RNA)
RNA: B1 RNA with G26C, G27A, G28U, C29A, C30G, C31G
DNA 1: CAATCTGAATTCCGGTCTCCC
DNA 2: TGGTGGCTACGACGGGATT
B30: UAUCCAA (DNA:RNA)
RNA: B1 RNA with A25U, G26A, G27U, G28C, C30A, C31A
DNA 1: CAATCTGAATTCCGGTCTCCC
DNA 2: TGGTGGCTACGACGGGATT
B31: GAGAACA (DNA:RNA)
RNA: B1 RNA with A25G, G26A, G28A, C29A, C31A
DNA 1: CAATCTGAATTCCGGTCTCCC
DNA 2: TGGTGGCTACGACGGGATT

The target of this assay is T1, RBFOX1 RRM. Put plainly: EMSA; HiTS-Eq, 1 nM pool, 10 min; buffer printed only for the single-RNA assays: 10 mM Tris pH 7.5, 150 mM NaCl, 3.4 mM EDTA, 0.001% NP-40, 30 C. To be noted: tags: His6 N-terminal (pET28a); label: 5' 32P. The method, boiled down: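 Purified RbFox RRM, wild type or mutant, was incubated for 10 min in 50 µL with 1 nM of a 5′-radiolabelled RNA pool carrying 7 randomized nucleotides, whose flanks were annealed to DNA oligonucleotides, over a series of increasing protein concentrations. Unbound RNA was resolved on 8% native PAGE, cut out, reverse-transcribed, barcoded by PCR and sequenced on an Illumina HiSeq 2500. Relative association constants were derived from changes in read counts for each RNA species versus the control reaction and normalised to the cognate motif.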
A general note: A gel shift assay detects complexes by their altered migration in electrophoresis.
For B1, the binding signal was 0.0184 KA relative to UGCAUGU.

Take B2: the binding signal is 0.00724 KA relative to UGCAUGU.

For the molecule B3, the binding signal is 0.00502 KA relative to UGCAUGU.

In the case of B4, the binding signal was 0.00633 KA relative to UGCAUGU.

Consider B5, for which the binding signal was 0.00209 KA relative to UGCAUGU.

As for B6, the binding signal is 0.00934 KA relative to UGCAUGU.

B7: the binding signal was 0.00365 KA relative to UGCAUGU.

For the molecule B8, the binding signal was 0.0201 KA relative to UGCAUGU.

As for B9, the binding signal is 0.000334 KA relative to UGCAUGU.

For the molecule B10, the binding signal is 0.013 KA relative to UGCAUGU.

Take B11: the binding signal is 0.00606 KA relative to UGCAUGU.

As for B12, the binding signal is 0.0125 KA relative to UGCAUGU.

In the case of B13, the binding signal was 0.00261 KA relative to UGCAUGU.

As for B14, the binding signal is 0.0206 KA relative to UGCAUGU.

Regarding B15, the binding signal is 0.0129 KA relative to UGCAUGU.

With B16, the binding signal was 0.0085 KA relative to UGCAUGU.

Take B17: the binding signal is 0.0201 KA relative to UGCAUGU.

Regarding B18, the binding signal is 0.00854 KA relative to UGCAUGU.

Consider B19, for which the binding signal is 0.0263 KA relative to UGCAUGU.

B20: the binding signal was 0.0109 KA relative to UGCAUGU.

Turning to B21, the binding signal was 0.0139 KA relative to UGCAUGU.

Regarding B22, the binding signal is 0.00391 KA relative to UGCAUGU.

With B23, the binding signal is 0.00182 KA relative to UGCAUGU.

For the molecule B24, the binding signal is 0.00942 KA relative to UGCAUGU.

B25: the binding signal is 0.00983 KA relative to UGCAUGU.

As to B26, the binding signal is 0.00497 KA relative to UGCAUGU.

Consider B27, for which the binding signal was 0.00411 KA relative to UGCAUGU.

For B28, the binding signal was 0.00877 KA relative to UGCAUGU.

Turning to B29, the binding signal was 0.00417 KA relative to UGCAUGU.

Turning to B30, the binding signal was 0.00131 KA relative to UGCAUGU.

For B31, the binding signal was 0.0109 KA relative to UGCAUGU.
